By IC50 is meant the dose at which the fit gives 50% viability; a fit beyond the top or the lowest dose is shown as a bound at that dose. AUC sums up the same curve from the lowest dose to the 256-fold higher top dose; it is 1 without any effect and falls as sensitivity rises. For part of these data: The top dose, if marked as inferred, comes from the curve model; the source does not state it.
Experiments:
Assay in all cases: Viability of human cancer cell lines after 72 h of drug (GDSC screen)
Trametinib = compound: CC(=O)Nc1cccc(-n2c(=O)n(C3CC3)c(=O)c3c(Nc4ccc(I)cc4F)n(C)c(=O)c(C)c32)c1 [Trametinib]; details: top dose 1 µM
Description: (§1)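 Human cancer cell lines in 384-well plates, medium with 10% serum, drug for 72 h over a 256-fold dose range (nine 2-fold or five 4-fold steps up to the top dose). Adherent lines were fixed and stained with the nucleic acid dye Syto60, suspension lines read with resazurin; signal relative to control wells, capped at 0 and 100%. One two-parameter sigmoid per drug and line, fitted in a mixed model over all curves with the slope shared within a line.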

HG-6-64-1 = compound: CCN1CCN(Cc2ccc(NC(=O)c3ccc(C)c(/C=C/c4cnc5[nH]ccc5c4OC)c3)cc2C(F)(F)F)CC1 [HG-6-64-1]; details: top dose 5.12 µM; top dose inferred
Description: as §1

I-BET-762 = compound: CCNC(=O)C[C@@H]1N=C(c2ccc(Cl)cc2)c2cc(OC)ccc2-n2c(C)nnc21 [I-BET-762]; details: top dose 20 µM; top dose inferred
Description: as §1

PF-4708671 = compound: CCc1cncnc1N1CCN(Cc2nc3ccc(C(F)(F)F)cc3[nH]2)CC1 [PF-4708671]; details: top dose 10 µM; top dose inferred
Description: as §1

AV-951 = compound: COc1cc2nccc(Oc3ccc(NC(=O)Nc4cc(C)on4)c(Cl)c3)c2cc1OC [AV-951]; details: top dose 0.128 µM; top dose inferred
Description: as §1

KIN001-244 = compound: O=C(NC(COc1ccc2[nH]c(=O)[nH]c2c1)c1ccccc1)c1cccn(Cc2ccc(F)c(F)c2)c1=O [KIN001-244]; details: top dose 20 µM; top dose inferred
Description: as §1

Cell Line	AUC (Trametinib)	IC50 (Trametinib)	AUC (HG-6-64-1)	IC50 (HG-6-64-1)	AUC (I-BET-762)	IC50 (I-BET-762)	AUC (PF-4708671)	IC50 (PF-4708671)	AUC (AV-951)	IC50 (AV-951)	AUC (KIN001-244)	IC50 (KIN001-244)
AsPC-1 (pancreas, adherent)	0.317	0.0132 µM	0.748	2.82 µM	0.875	> 20 µM	0.935	> 10 µM	0.951	> 0.128 µM	0.852	> 20 µM
BCPAP (thyroid, adherent)	0.31	0.0195 µM	0.502	0.324 µM	0.928	> 20 µM	0.968	> 10 µM	0.987	> 0.128 µM	0.784	7.64 µM
BEN (non-small cell lung carcinoma, adherent)	0.984	> 1 µM	0.9	> 5.12 µM	0.933	> 20 µM	0.818	6.71 µM	0.985	> 0.128 µM	0.914	> 20 µM
BFTC-905 (bladder, adherent)	0.138	0.00585 µM	0.731	1.29 µM	0.932	> 20 µM	0.958	> 10 µM	0.99	> 0.128 µM	0.893	18 µM
BFTC-909 (kidney, adherent)	0.77	0.372 µM	0.839	3.37 µM	0.988	> 20 µM	0.976	> 10 µM	0.988	> 0.128 µM	0.948	> 20 µM
BHT-101 (thyroid, adherent)	0.068	< 0.00391 µM	0.904	> 5.12 µM	0.895	> 20 µM	0.518	0.702 µM	0.985	> 0.128 µM	0.806	10.6 µM
BHY (head and neck, adherent)	0.762	0.358 µM	0.655	0.863 µM	0.925	> 20 µM	0.963	> 10 µM	0.981	> 0.128 µM	0.845	14.4 µM
BICR10 (head and neck, adherent)	0.804	0.595 µM	0.726	1.57 µM	0.984	> 20 µM	0.983	> 10 µM	0.984	> 0.128 µM	0.946	> 20 µM
BICR22 (head and neck, adherent)	0.253	0.0108 µM	0.947	> 5.12 µM	0.983	> 20 µM	0.955	> 10 µM	0.974	> 0.128 µM	0.919	> 20 µM
BICR78 (head and neck, adherent)	0.498	0.0617 µM	0.805	3.07 µM	0.94	> 20 µM	0.962	> 10 µM	0.978	> 0.128 µM	0.942	> 20 µM
BPH-1 (prostate, adherent)	0.206	0.00754 µM	0.733	1.61 µM	0.47	1.02 µM	0.91	> 10 µM	0.966	> 0.128 µM	0.927	> 20 µM
BT-20 (breast, adherent)	0.77	0.472 µM	0.923	> 5.12 µM	0.981	> 20 µM	0.935	> 10 µM	0.978	> 0.128 µM	0.936	> 20 µM
BT-483 (breast, adherent)	0.974	> 1 µM	0.974	> 5.12 µM	0.88	> 20 µM	0.976	> 10 µM	0.975	> 0.128 µM	0.873	> 20 µM
BxPC-3 (pancreas, adherent)	0.341	0.0213 µM	0.608	0.66 µM	0.897	> 20 µM	0.983	> 10 µM	0.981	> 0.128 µM	0.806	11.7 µM
C3A (liver, adherent)	0.505	0.0647 µM	0.808	2.77 µM	0.988	> 20 µM	0.931	> 10 µM	0.988	> 0.128 µM	0.988	> 20 µM
C32 (melanoma, adherent)	0.077	< 0.00391 µM	0.978	> 5.12 µM	0.97	> 20 µM	0.968	> 10 µM	0.987	> 0.128 µM	0.987	> 20 µM
C-33-A (cervix, adherent)	0.427	0.0394 µM	0.61	0.644 µM	0.986	> 20 µM	0.931	> 10 µM	0.986	> 0.128 µM	0.871	19 µM
CAKI-1 (kidney, adherent)	0.708	0.326 µM	0.497	0.313 µM	0.919	> 20 µM	0.915	> 10 µM	0.968	> 0.128 µM	0.903	> 20 µM
CAL-12T (non-small cell lung carcinoma, adherent)	0.7	0.247 µM	0.793	2.64 µM	0.965	> 20 µM	0.959	> 10 µM	0.983	> 0.128 µM	0.783	9.49 µM
CAL-27 (head and neck, adherent)	0.245	0.0113 µM	0.905	> 5.12 µM	0.908	> 20 µM	0.971	> 10 µM	0.984	> 0.128 µM	0.936	> 20 µM
CAL-29 (bladder, adherent)	0.411	0.0349 µM	0.748	1.76 µM	0.978	> 20 µM	0.945	> 10 µM	0.984	> 0.128 µM	0.866	> 20 µM
CAL-33 (head and neck, adherent)	0.432	0.0407 µM	0.744	1.6 µM	0.965	> 20 µM	0.959	> 10 µM	0.984	> 0.128 µM	0.891	> 20 µM

Cell Line	AUC (Trametinib)	IC50 (Trametinib)	AUC (HG-6-64-1)	IC50 (HG-6-64-1)	AUC (I-BET-762)	IC50 (I-BET-762)	AUC (PF-4708671)	IC50 (PF-4708671)	AUC (AV-951)	IC50 (AV-951)	AUC (KIN001-244)	IC50 (KIN001-244)
CAL-39 (cervix, adherent)	0.335	0.0213 µM	0.652	0.856 µM	0.967	> 20 µM	0.972	> 10 µM	0.986	> 0.128 µM	0.978	> 20 µM
CAL-51 (breast, adherent)	0.943	> 1 µM	0.501	0.322 µM	0.982	> 20 µM	0.704	2.14 µM	0.99	> 0.128 µM	0.989	> 20 µM
CAL-54 (kidney, adherent)	0.826	0.727 µM	0.661	0.958 µM	0.896	> 20 µM	0.953	> 10 µM	0.983	> 0.128 µM	0.913	> 20 µM
CAL-62 (thyroid, adherent)	0.305	0.0183 µM	0.766	1.8 µM	0.901	> 20 µM	0.964	> 10 µM	0.988	> 0.128 µM	0.897	> 20 µM
CAL-72 (osteosarcoma, adherent)	0.765	0.429 µM	0.966	> 5.12 µM	0.984	> 20 µM	0.977	> 10 µM	0.983	> 0.128 µM	0.984	> 20 µM
CAL-78 (chondrosarcoma, adherent)	0.895	> 1 µM	0.757	2 µM	0.962	> 20 µM	0.979	> 10 µM	0.986	> 0.128 µM	0.897	> 20 µM
CAL-85-1 (breast, adherent)	0.64	0.171 µM	0.444	0.216 µM	0.871	> 20 µM	0.976	> 10 µM	0.98	> 0.128 µM	0.874	> 20 µM
CAL-120 (breast, adherent)	0.676	0.224 µM	0.656	0.99 µM	0.809	14.3 µM	0.95	> 10 µM	0.974	> 0.128 µM	0.793	12.3 µM
CAMA-1 (breast, adherent)	0.971	> 1 µM	0.607	0.678 µM	0.913	> 20 µM	0.95	> 10 µM	0.983	> 0.128 µM	0.868	> 20 µM
CCF-STTG1 (glioma, adherent)	0.967	> 1 µM	0.626	0.716 µM	0.988	> 20 µM	0.984	> 10 µM	0.962	> 0.128 µM	0.895	> 20 µM
CCK-81 (large intestine, adherent)	0.988	> 1 µM	0.879	4.72 µM	0.679	3.81 µM	0.92	> 10 µM	0.99	> 0.128 µM	0.898	> 20 µM
CFPAC-1 (pancreas, adherent)	0.75	0.37 µM	0.695	1.23 µM	0.957	> 20 µM	0.971	> 10 µM	0.977	> 0.128 µM	0.947	> 20 µM
CHL-1 (melanoma, adherent)	0.478	0.0547 µM	0.451	0.238 µM	0.736	5.62 µM	0.972	> 10 µM	0.987	> 0.128 µM	0.705	4.54 µM
CHP-212 (neuroblastoma, adherent)	0.061	< 0.00391 µM	0.603	0.598 µM	0.553	1.73 µM	0.969	> 10 µM	0.988	> 0.128 µM	0.985	> 20 µM
CHSA0108 (chondrosarcoma, adherent)	0.836	0.817 µM	0.611	0.678 µM	0.761	8.17 µM	0.969	> 10 µM	0.978	> 0.128 µM	0.902	> 20 µM
CHSA8926 (chondrosarcoma, adherent)	0.733	0.39 µM	0.867	> 5.12 µM	0.98	> 20 µM	0.98	> 10 µM	0.972	> 0.128 µM	0.951	> 20 µM
COLO-205 (large intestine, suspension)	0.198	0.00806 µM	0.557	0.457 µM	0.857	15.9 µM	0.934	> 10 µM	0.988	> 0.128 µM	0.877	19.6 µM
COLO-678 (large intestine, semi-adherent)	0.467	0.0496 µM	0.776	2.67 µM	0.958	> 20 µM	0.975	> 10 µM	0.979	> 0.128 µM	0.966	> 20 µM
COLO-679 (melanoma, adherent)	0.103	< 0.00391 µM	0.627	0.75 µM	0.982	> 20 µM	0.955	> 10 µM	0.975	> 0.128 µM	0.973	> 20 µM
COLO-680N (oesophagus, adherent)	0.871	> 1 µM	0.648	0.889 µM	0.986	> 20 µM	0.97	> 10 µM	0.975	> 0.128 µM	0.922	> 20 µM
COLO-792 (melanoma, adherent)	0.277	0.0148 µM	0.927	> 5.12 µM	0.971	> 20 µM	0.947	> 10 µM	0.979	> 0.128 µM	0.974	> 20 µM
COR-L23 (large cell lung carcinoma, adherent)	0.632	0.143 µM	0.818	2.79 µM	0.938	> 20 µM	0.972	> 10 µM	0.985	> 0.128 µM	0.819	11 µM
